The supplement of paper PMC3334620
Whole data set: some 33,000 sequences, median “E-score (-0.5 to 0.5)” near -0.016, cut for the highest 2% near 0.31. Some of the results follow.

Biological target: Cst6 (UniProt P40535)
Experiment: PBM E-score (8-mer binding enrichment) (E-score (-0.5 to 0.5)); higher = stronger / more preferred TF binding; most listed sequences are background and not binding sites
Conditions: protein concentration: 200 nM; construct: GST-DNA-binding domain
Protocol: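 Universal 'all 10-mer' protein binding microarrays (Agilent AMADID 015681) probed with GST-tagged S. cerevisiae TFs (full-length or DBD) made by in vitro transcription/translation (PURExpress), about 100-200 nM. Bound TF was detected with fluorescent anti-GST. Each ungapped 8-mer (which stands for itself and its reverse complement) is scored by the PBM enrichment score (E-score), a modified Wilcoxon-Mann-Whitney statistic from -0.5 to +0.5, computed with the Universal PBM Analysis Suite. Scale: above 0.35 generally sequence-specific binding.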

Sequence | PBM E-score
GTAGAATA | 0.223
TCCACGCA | -0.0245
ACGTGACG | 0.451
CTAGCAAC | 0.00251
CACGGAAA | 0.167
ATCACAAT | 0.158
TAGATGGA | -0.124
GAGTCCGC | -0.298
TGTACAAA | 0.0598
AGCTCTGC | -0.337
AGCTTGCG | -0.0677
AATGTAGA | -0.00645
AGAGTTAG | 0.0934
CTGTATAA | 0.0164
ATTCATAG | 0.0473
GCTTGTAC | 0.0044
CAATTGGC | 0.0859
CCGGAGCA | -0.275
ACCGAACA | 0.0409
GCGCCAGA | -0.153
TCCATTAA | 0.0366
AAAGTGCG | 0.125
GTATCCAC | -0.0793
TTAGCAAA | 0.142
GACATAGA | 0.143

Sequence | PBM E-score
CTCAAAAG | -0.00858
CGTATGCC | -0.0899
TACCGCCA | 0.00379
GACGGAGA | -0.11
ACTAACCC | -0.0622
AGTCATCG | 0.189
TCGTGTAA | 0.103
ATTGCCCA | -0.101
CTGAGAAG | -0.26
TGACGCCA | 0.466
GAGCCGAC | -0.229
CGCCTATA | -0.134
CCTACACC | -0.262
GCCTTAGA | -0.015
CATATGGA | 0.0251
AAATTAAT | 0.248
CCTATTGA | 0.0211
AGACCTAT | 0.00584
AAGCCCAT | -0.163
AACATCAT | 0.378
AAGGCCAA | -0.194
CTGCCTTC | -0.237
GCTCACCC | -0.225
CGGGTCAG | 0.00319
CGCGAAAG | 0.00353

Sequence | PBM E-score
CTTACTAA | 0.104
GATGAGAC | 0.0611
CGTGTATA | 0.141
ATAGCGCA | -0.135
AAGCGAAG | -0.0837
ATGTCTTG | -0.00382
AGTGAATG | 0.171
ACAATCAT | 0.162
GCGCAAGA | 0.103
TACGATCA | 0.174
GACTCTTA | 0.00134
CCCTGAAC | 0.108
CTCTGAGA | -0.155
AGGCGTCC | -0.14
GGCGGAAC | -0.217
CATCCAGC | -0.0585
CCATGGCC | -0.276
GAGCTAGA | -0.171
AACAAAAG | 0.179
CTGTTTAC | 0.184
ACTCTGCC | -0.0415
ACCGAGAA | 0.109
CTCCTAAC | -0.121
ACGCACTG | -0.0512
AAAAGACA | 0.271

Sequence | PBM E-score
AATCATCA | 0.308
CATGGAAA | 0.233
ACAGCAGG | -0.111
GAGTGGGA | -0.214
CCACGCGG | -0.0273
CCCATTAA | -0.144
GAAGCATA | -0.0652
GCTATTTA | 0.0788
ATGACGGA | 0.417
CCAAACAG | -0.139
GAGTAGAC | -0.0464
CAAAGCTC | -0.296
GAGCGCTA | 0.0355
GCCAGGAA | -0.0424
AGTGACAT | 0.459
GACCGTCC | -0.249
AACACGTA | 0.274
AACGTAGG | -0.07
GTTATCCA | -0.0365
CCATAGAC | -0.152
AATTCATA | 0.162
CCAGTTAA | 0.175
CAAGGTGA | 0.0541
ATAACCGA | -0.0162
GCAGTGCC | -0.14

Sequence | PBM E-score
ATATGTCA | 0.404
GGTCACGA | 0.0109
CGGCAGAA | 0.122
TGGAACCA | 0.0397
CAAGTAAG | 0.0168
CAGCGAGG | -0.155
AAACGATT | 0.0698
GCATCTGA | -0.28
CCATTTGC | 0.0463
ACGAACCA | 0.195
AGATTCCT | -0.144
GCCTATAC | -0.16
CTGATGAA | 0.0772
AACCTGTC | -0.115
ATTCGACC | -0.183
CGCGTTCC | -0.172
TGTAATAA | 0.329
GAGTGAGA | -0.0221
ATAGCCAT | -0.0348
AGTTGGGA | -0.0811
CTACCAGA | -0.0905
ACGACACA | 0.167
ATAGCTCG | 0.0364
CGCAGCCA | -0.163
TCACAAGA | 0.00409

Sequence | PBM E-score
ATGCGTAC | 0.0302
GTTTGCGA | 0.0351
CGCCGAAC | 0.243
GCCATAAA | 0.0469
AATCCAAT | 0.139
GGTAAACC | -0.129
CCCAAGAA | -0.0927
ATAACTCG | 0.0754
GTTATAAC | 0.222
ACCTTACT | 0.156
TAAGGCGA | 0.0918
GATGGATA | -0.0778
AATGCGAA | 0.051
GTACGTAA | 0.449
AACAGAGT | 0.0698
CATTTGCA | 0.14
AAGTTGAA | 0.108
CCATACTC | -0.219
ATGTCTCG | -0.136
AGAACCTA | -0.106
AGTTCAAG | 0.118
ACCATCTA | -0.207
GCCTATGA | -0.021
AGCGCGCA | 0.00679
AATCCCTC | -0.0193

Sequence | PBM E-score
CGAGCTTC | -0.0365
AGCGGCAA | 0.137
GAGCCCCA | -0.331
AATTGAAC | 0.0107
ACCCCTGG | -0.232
CCATACAG | -0.132
ACTATAGA | -0.0234
GTCACGCA | 0.241
ACCACCGG | -0.112
ACTCACTC | 0.0755
CAGCAAGC | -0.241
CACCACTC | -0.061
AAGGATGC | 0.0365
CCTGCTAG | -0.275
ACATCTCG | 0.027
AGGCATTC | -0.135
ATGCGGTC | 0.171
AATGAGTG | 0.156
CTGATCGC | 0.0613
AAGAATCC | -0.0289
CCATGCGA | -0.112
ATCACTAA | 0.199
